This sample is rich in variants without activity.
B1: tRNA (parent)
chain: CUCUCGGUAGCCAAGUUGGUUUAAGGCGCAAGACUUUAAUUUAUCACUACGAAAUCUUGAGAUCGGGCGUUCGACUCGCCCCCGGGAGAUUUUUUCCUCGAGCAA

Variants of: B1
Assay: nonsense suppression (GFP-seq) (ratio to wild type); higher = more function; SUP4oc tRNA, yeast GFP reporter sort-seq
In short: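 Yeast carrying genome-integrated SUP4oc tRNA variants from a library with ~3% random mutations were grown in raffinose/galactose medium with 80 mg/L adenine. Each strain also carried a galactose-driven GFP ochre reporter and RFP. Cells were sorted into GFP/RFP bins, and each bin was Illumina-sequenced (phred ≥30). Nonsense suppression (GFPSEQ) is the bin median GFP/RFP, weighted by each variant's estimated cell share per bin, relative to wild-type SUP4oc; variants needed ≥100 reads and ≥30 cells.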

Row | Variant | nonsense suppression
1 | G19C A30G U35C A62C | ≤ 0.026
2 | U17G C75U A87G | 0.77
3 | G18U A33U G69C | ≤ 0.026
4 | G19A U35C A54G | ≤ 0.026
5 | U17G G25A G61A | ≤ 0.026
6 | G19A A23G U71A | ≤ 0.026
7 | G19U A24G G78C A89C | ≤ 0.026
8 | G18C U70G C80A G88A | ≤ 0.026
9 | G18U C27A G28U U57G U76A | ≤ 0.026
10 | U17G G59U | ≤ 0.026
11 | G19C A33G G61A | ≤ 0.026
12 | U17G U20A A24C G25A U57C G73U A87U | ≤ 0.026
13 | G18A A31C | ≤ 0.026
14 | G18A A74C C81G A89C | ≤ 0.026
15 | U17G G61A C64U | ≤ 0.026
16 | G18U C29A A30C G86U | ≤ 0.026
17 | G18C G26U G67U | ≤ 0.026
18 | G18C A23U A33G G78C | ≤ 0.026
19 | G19C G61A A74C G84A | ≤ 0.026
20 | G18U U57C G65U G85C | ≤ 0.026
21 | G18U C34A | ≤ 0.026
22 | G18U G73A | ≤ 0.026
23 | G18U A62G | ≤ 0.026
24 | G18U A62U | ≤ 0.026

Row | Variant | nonsense suppression
25 | G19A C64G | ≤ 0.026
26 | G18C U71C | ≤ 0.026
27 | U17G U57C | ≤ 0.026
28 | G18U A60G | ≤ 0.026
29 | G19C G28A | ≤ 0.026
30 | G18C C29U C82G | ≤ 0.026
31 | G18A U21G A23C A30G G86A | ≤ 0.026
32 | G19A A31G A54G G67A U76C C80A | ≤ 0.026
33 | G18C G66A | ≤ 0.026
34 | G18A A87G | 0.036
35 | G19C G26C U57G U76A | ≤ 0.026
36 | G19C A89U | ≤ 0.026
37 | U17G C29U C68G | ≤ 0.026
38 | G18A A23G A31U G32U A89G | ≤ 0.026
39 | G19C A54G | ≤ 0.026
40 | G19C A54C G65A | ≤ 0.026
41 | G18A A30G C79G | ≤ 0.026
42 | G19C U20A A31C U57G U71A A89G | ≤ 0.026
43 | G18A G65C | ≤ 0.026
44 | G18U G19A | ≤ 0.026
45 | G18C C56A G59A | ≤ 0.026
46 | G18C A33U | ≤ 0.026
47 | G18C A33C | ≤ 0.026
48 | G18U G67A | ≤ 0.026

Row | Variant | nonsense suppression
49 | G18A G66U C75A | ≤ 0.026
50 | G19A U76C A87G | ≤ 0.026
51 | G19A G25C | ≤ 0.026
52 | G18U A31U G32A G67A G86C G88A | ≤ 0.026
53 | G18C A30G | ≤ 0.026
54 | G18U C56A | ≤ 0.026
55 | G18A G88A | ≤ 0.026
56 | G19C A30G | ≤ 0.026
57 | G18C G67U | ≤ 0.026
58 | G18C G67C | ≤ 0.026
59 | G18C A54G U63C C68U | ≤ 0.026
60 | G19C C29U U55C A89C | ≤ 0.026
61 | G18A U21G G65C | ≤ 0.026
62 | G19C C29A A54G G61A G88C | ≤ 0.026
63 | G18C C80A | ≤ 0.026
64 | G18U A87C | ≤ 0.026
65 | G18U C72G | ≤ 0.026
66 | G19A C34U U71A | ≤ 0.026
67 | G18C G26U C72U | ≤ 0.026
68 | G18A A30G U71G | ≤ 0.026
69 | G18C G78A G88A | ≤ 0.026
70 | G18A C27A | ≤ 0.026
71 | G19U A24G A87G | ≤ 0.026
72 | U17G U35A G67A U76A | ≤ 0.026

Row | Variant | nonsense suppression
73 | G18U G66U C68U | ≤ 0.026
74 | G18A G61U | ≤ 0.026
75 | G18U U57G | ≤ 0.026
76 | G19C A30G G73C | ≤ 0.026
77 | G18C C29A C79A | ≤ 0.026
78 | G18C C72G | ≤ 0.026
79 | G18C C29U U70G C81A | ≤ 0.026
80 | G19A G65C G66U C80A | ≤ 0.026
81 | G18A C29A U71G C72U C80A | ≤ 0.026
82 | G18A A54G U58A | ≤ 0.026
83 | U17G G67A | 0.0593
84 | U17G G67C | ≤ 0.026
85 | G19C U63C C83A | 0.789
86 | G18U G25A U70A A87U | ≤ 0.026
87 | U17G G61C | 0.371
88 | G18U A89C | ≤ 0.026
89 | G19C G88C | ≤ 0.026
90 | G18A U22C U71C | ≤ 0.026
91 | G18A C64G C77A | ≤ 0.026
92 | G19C U35C | ≤ 0.026
93 | G19A C68G | ≤ 0.026
94 | G19A C68A | ≤ 0.026
95 | U17G G26U A30G C34A A74U | ≤ 0.026
96 | G18C G28A C75G | ≤ 0.026

Row | Variant | nonsense suppression
97 | U17G G86U | ≤ 0.026
98 | U17G U20C G26U A87U | ≤ 0.026
99 | G18U C34U A62C G73U | ≤ 0.026
100 | G19U A24G U63A U71A C80G A87U | ≤ 0.026
101 | G18U A31G U63A | ≤ 0.026
102 | G18A A62G C64A G65A G73U C79U | ≤ 0.026
103 | G18A A89G | ≤ 0.026
104 | G18C A24C C72A A74C | ≤ 0.026
105 | G18A G32A C64G | ≤ 0.026
106 | G18C G19A G28C | ≤ 0.026
107 | G18A C27G C79A | ≤ 0.026
108 | G18C A31C U57C | ≤ 0.026
109 | G18C C72U G84U | ≤ 0.026
110 | G18U G25A A31U | ≤ 0.026
111 | G19A A30U C56A C80A G85A | ≤ 0.026
112 | G19C U22G A33G | ≤ 0.026
113 | G18A U57A U58C G69A | ≤ 0.026
114 | G18U G28C C80G A87G | ≤ 0.026
115 | G19A A31C U70C C81G | ≤ 0.026
116 | G18U U58C G61U G65U G78A | ≤ 0.026
117 | G18C G61A | ≤ 0.026
118 | G19A G32A G88C | ≤ 0.026
119 | G18U C68U | ≤ 0.026
120 | G18C A60C U71A C72U | ≤ 0.026

Row | Variant | nonsense suppression
121 | U17G G19A G26A | ≤ 0.026
122 | G19C C79A | ≤ 0.026
123 | G19C G32A A60C G69U A74C | ≤ 0.026
124 | G19A C27G | ≤ 0.026
125 | U17G G67C C72G G78C A89C | ≤ 0.026
126 | G18C C34G G88A | ≤ 0.026
127 | G18U U20C U35G C83A G85C | ≤ 0.026
128 | U17G C64A | 0.0364
129 | G18A U21A U22G | ≤ 0.026
130 | G18C A23U A89U | ≤ 0.026
131 | G18C A24C | ≤ 0.026
132 | G19A A23G | ≤ 0.026
133 | G19A U55A | ≤ 0.026
134 | G19U A24G G73A | ≤ 0.026
135 | G19C A31U | ≤ 0.026
136 | G18A U35G | ≤ 0.026
137 | G18U G32U G61C A74C | ≤ 0.026
138 | U17G G26U | ≤ 0.026
139 | G18A C56U U63C C68G | ≤ 0.026
140 | G18A A24C | 0.0483
141 | G18A A60G G67C | ≤ 0.026
142 | G18A G26A C29G U57A | ≤ 0.026
143 | G19A A31G G61U A89U | ≤ 0.026
144 | G19A G73C | ≤ 0.026

Row | Variant | nonsense suppression
145 | G18U | ≤ 0.026
146 | G18C | ≤ 0.026
147 | G18A | ≤ 0.026
148 | U17G G88A | ≤ 0.026
149 | U17G G88U | ≤ 0.026
150 | G18C U57G A87C | ≤ 0.026
151 | G19A C64U A74U | ≤ 0.026
152 | U17G C34U | ≤ 0.026
153 | G19C U55C A89U | ≤ 0.026
154 | G18A G86C A87G | ≤ 0.026
155 | G19C G73C | ≤ 0.026
156 | G18U C83A | ≤ 0.026
157 | G19A G28U | ≤ 0.026
158 | G19C U22G | ≤ 0.026
159 | G19C U58G G88C | ≤ 0.026
160 | G19A A30G | ≤ 0.026
161 | G19A A30C | ≤ 0.026
162 | U17G G32U U55A U57C U76C | ≤ 0.026
163 | G18A A31G C34G G78A | ≤ 0.026
164 | G19A C27U C29A A62U G84C | ≤ 0.026
165 | G18U A30G G69A | ≤ 0.026
166 | G18U U21A G25U | ≤ 0.026
167 | G19A C34A G59A G73U C82U | ≤ 0.026
